Viability index data for 30 compounds are collected here from the supplement of paper PMC4723716.

Over roughly 3,600 compounds, “viability index relative to DMSO control” has its median near 0.81; the lowest 2% begin near 0.13. Some of the results follow.
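Note: 384-well serum-free SaLSSA: MitoTracker Red CMXRos staining with saponin lysis, high-content imaging, treated-well particle count divided by plate-mean count of DMSO wells.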

The experiment relates to Plasmodium falciparum NF54 stage V gametocytes. In words: viability index relative to DMSO control (fraction); higher = less gametocyte killing. The following applies: 1.25 µM, incubation time: 72 h.
As for `CCCCCCc1cc(O)c2c(c1)OC(C)(C)C1=C2CCN(C)C1`, the viability index is 0.534. The figure for `O=C(CCl)Nc1ccc(Cl)cc1` is 0.84; for `O=C(Nc1ccc(Cl)cc1)Oc1ccccc1` it is 1.18. The figure for `COc1ccccc1-n1c(C=Cc2cc(Br)ccc2O)nc2ccccc2c1=O` is 0.961. The figure for `CCN1C(=Cc2sc3ccccc3[n+]2CC)[Se]c2ccccc21` is 0.595. In turn, `COc1ccccc1N1CCN(Cc2cc(C)c(C)cc2O)CC1` gave a viability index of 0.748. `OP1(O)=NP(O)(O)=NP(O)(O)=NP(O)(O)=N1` displayed a viability index of 0.491.

In turn, `NC(=O)Cc1ccccc1` came in with a viability index of 1.02. The figure for `CCCCCc1cc(O)c2c3c(c(=O)oc2c1)CN(C)CC3` is 0.323.

`COc1cc(OC)c(OC)cc1CN1CCN(C(C)C)CC1` registered a viability index of 0.9. The figure for `CCC1CN2CCC1CC2C(O)c1ccnc2ccc(OC)cc12` (stereo not given) is 0.288; for `OCCC1CN(Cc2cccc(Cl)c2)CCN1Cc1ccccc1` (stereo not given) it is 0.856. In the case of `COc1ccc(-c2ccc(C=C3C(=O)NC(=S)NC3=O)o2)cc1Cl` it was 0.866.

In the case of `CN(C)c1ccc(C=C2C(=O)NC(=O)N(Cc3ccccc3Cl)C2=O)cc1`, the viability index amounted to 1.03.

`C[C@@H]1C[C@H]2CC[C@H](O2)[C@H](C)C(=O)O[C@@H](C)C[C@@H]2CC[C@@H](O2)[C@@H](C)C(=O)O[C@H](C)C[C@H]2CC[C@H](O2)[C@H](C)C(=O)O[C@@H](C)C[C@@H]2CC[C@@H](O2)[C@@H](C)C(=O)O1` returned a viability index of 0.202.

For the compound `CC(Cc1ccccc1)NCCCCCCCNC(C)Cc1ccccc1` (stereo not given), the viability index turned out to be 0.545. In the case of `Cc1ccc(-n2c(C)c(C(=O)c3ccccc3)c3cc(O)ccc32)cc1` it was 1.24.

Compound `CC(Cc1ccccc1Sc1ccccc1O)N(C)C` (stereo not given) showed a viability index of 0.81.

Take `CCOC(=O)c1c(CN2CCN(CC#N)CC2)n(Cc2ccccc2)c2cc(Br)c(O)cc12`: the viability index is 1.05. The figure for `CCCCCCCc1cc(O)c2c3c(c(=O)oc2c1)CCC(C)C3` (stereo not given) is 0.587. In the case of `COc1ccc(Cn2cccc(C(=O)Nc3ccc(OC)cc3)c2=O)cc1` it was 0.89.

As to `CCOc1ccc2nccc([C@@H](O)[C@@H]3C[C@@H]4CCN3C[C@@H]4CC)c2c1`, the viability index came to 0.596. Consider `O=C(Cn1c2ccccc2c(=O)c2ccccc21)Nc1ccc(Cl)cc1C(=O)c1ccccc1`, for which the viability index came out at 0.781. Compound `CC1(C)CN=C(NCc2ccccc2Cl)S1` yielded a viability index of 0.894. The figure for `CCN1CCN(Cc2cc(Cl)cc(Cl)c2O)CC1` is 0.89; for `O=C1CN=C(c2ccccc2)c2cc(Cl)ccc2N1Cc1cc(=O)n2ccccc2n1` it is 0.848.

As for `COc1ccc(CC2NCC(O)C2OC(C)=O)cc1` (stereo not given), the viability index came out at 0. Regarding `O=C(c1ccccc1)c1cc(Cl)ccc1NCCBr`, the viability index came to 0.865. In turn, `c1ccc(C2=NN(c3ccccc3)N(c3ccccc3)N2)cc1` gave a viability index of 0.583. The figure for `CCOc1ccc(N2C(=O)NC(=O)/C(=C\c3cn(C(C)=O)c4ccccc34)C2=O)cc1` is 0.846.
